# Data from the supplement of paper PMC8728848.
# Some of the results follow.
# B1: UDA (Urtica dioica), P11218 (protein)
# chain: MMMRFLSAVVIMSSAMAVGLVSAQRCGSQGGGGTCPALWCCSIWGWCGDSEPYCGRTCENKCWSGERSDHRCGAAVGNPPCGQDRCCSVHGWCGGGNDYCSGSKCQYRCSSSVRGPRVALSGNSTANSIGNVVVTEPLFDQMFSHRKDCPSQGFYSYHSFLVAAESFPAFGTIGDVATRKREVAAFLAHISQATSGERSDVENPHAWGLCHINTTTVTENDFCTSSDWPCAAGKKYSPRGPIQLTHNFNYGLAGQAIGEDLIQNPDLVEKDPIISFKTALWFWMSQHDNKPSCHDIVLNANSAANRIPNKGVIGNIISRAFGHDDFAVRSSSIGFYKRYCDMLGVSYGHDLKYWFDNTPSSEFQRIQMRVAA
# Experiments:
# Test in all cases: glycan array binding signal (z-score within array); higher = stronger binding
# Details in all cases: glycan notation: IUPAC condensed, linker removed
# [1] = target: Neu5Ac(a2-3)Gal(b1-3)GlcNAc(b1-3)Gal(b1-4)GlcNAc
# Method in brief: (§1)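 Columns mapping to the same glycan were averaged after glycan names were converted to IUPAC-condensed notation. The data come from 3228 arrays in the Consortium for Functional Glycomics database, limited to those with an available protein sequence. Binding is reported as a within-array Z-score averaged across arrays of one protein sequence and across linkers.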
# [2] = target: Neu5Ac(a2-3)Gal(b1-3)GlcNAc(b1-3)GalNAc
# Method in brief: as §1
# [3] = target: Neu5Ac(a2-3)Gal(b1-3)GlcNAc(b1-4)Gal(b1-4)Glc
# Method in brief: as §1
# [4] = target: Neu5Ac(a2-3)Gal(b1-3)GlcNAc(b1-6)GalNAc
# Method in brief: as §1
# [5] = target: Neu5Ac(a2-3)Gal(b1-3)GlcNAc6S
# Method in brief: as §1
# [6] = target: Neu5Ac(a2-3)Gal(b1-3)[Fuc(a1-4)]GlcNAc
# Method in brief: as §1
# [7] = target: Neu5Ac(a2-3)Gal(b1-3)[Fuc(a1-4)]GlcNAc(b1-3)Gal(b1-3)[Fuc(a1-4)]GlcNAc
# Method in brief: as §1
# [8] = target: Neu5Ac(a2-3)Gal(b1-3)[Fuc(a1-4)]GlcNAc(b1-3)Gal(b1-4)[Fuc(a1-3)]GlcNAc
# Method in brief: as §1
# [9] = target: Neu5Ac(a2-3)Gal(b1-3)[GlcNAc(b1-6)]GalNAc
# Method in brief: as §1
# [10] = target: Neu5Ac(a2-3)Gal(b1-3)[Neu5Ac(a2-3)Gal(b1-4)]GlcNAc
# Method in brief: as §1
# [11] = target: Neu5Ac(a2-3)Gal(b1-3)[Neu5Ac(a2-6)]GalNAc
# Method in brief: as §1
# [12] = target: Neu5Ac(a2-3)Gal(b1-3)[Neu5Ac(a2-6)]GlcNAc(b1-3)[Fuc(a1-3)[Gal(b1-4)]GlcNAc(b1-6)]Gal(b1-4)Glc
# Method in brief: as §1
# [13] = target: Neu5Ac(a2-3)Gal(b1-3)]Neu5Ac(a2-3)Gal(b1-4)]GlcNAc
# Method in brief: as §1
# [14] = target: Neu5Ac(a2-3)Gal(b1-4)Glc
# Method in brief: as §1
# [15] = target: Neu5Ac(a2-3)Gal(b1-4)GlcNAc
# Method in brief: as §1
# [16] = target: Neu5Ac(a2-3)Gal(b1-4)GlcNAc(b1-2)Man
# Method in brief: as §1
# [17] = target: Neu5Ac(a2-3)Gal(b1-4)GlcNAc(b1-2)Man(a1-3)[GlcNAc(b1-4)][Neu5Ac(a2-3)Gal(b1-4)GlcNAc(b1-2)Man(a1-6)]Man(b1-4)GlcNAc(b1-4)GlcNAc
# Method in brief: as §1
# [18] = target: Neu5Ac(a2-3)Gal(b1-4)GlcNAc(b1-2)Man(a1-3)[Neu5Ac(a2-3)Gal(b1-4)GlcNAc(b1-2)Man(a1-6)]Man(b1-4)GlcNAc(b1-4)GlcNAc
# Method in brief: as §1
# [19] = target: Neu5Ac(a2-3)Gal(b1-4)GlcNAc(b1-2)Man(a1-3)[Neu5Ac(a2-3)Gal(b1-4)GlcNAc(b1-2)Man(a1-6)]Man(b1-4)GlcNAc(b1-4)[Fuc(a1-6)]GlcNAc
# Method in brief: as §1
# [20] = target: Neu5Ac(a2-3)Gal(b1-4)GlcNAc(b1-2)Man(a1-3)[Neu5Ac(a2-6)Gal(b1-4)GlcNAc(b1-2)Man(a1-6)]Man(b1-4)GlcNAc(b1-4)GlcNAc
# Method in brief: as §1
# [21] = target: Neu5Ac(a2-3)Gal(b1-4)GlcNAc(b1-2)[Neu5Ac(a2-3)Gal(b1-4)GlcNAc(b1-4)]Man(a1-3)[GlcNAc(b1-4)][Neu5Ac(a2-3)Gal(b1-4)GlcNAc(b1-2)[Neu5Ac(a2-3)Gal(b1-4)GlcNAc(b1-6)]Man(a1-6)]Man(b1-4)GlcNAc(b1-4)GlcNAc
# Method in brief: as §1
# [22] = target: Neu5Ac(a2-3)Gal(b1-4)GlcNAc(b1-2)[Neu5Ac(a2-3)Gal(b1-4)GlcNAc(b1-4)]Man(a1-3)[GlcNAc(b1-4)][Neu5Ac(a2-3)Gal(b1-4)GlcNAc(b1-4)Man(a1-6)]Man(b1-4)GlcNAc(b1-4)GlcNAc
# Method in brief: as §1
# [23] = target: Neu5Ac(a2-3)Gal(b1-4)GlcNAc(b1-2)[Neu5Ac(a2-3)Gal(b1-4)GlcNAc(b1-6)]Man(a1-6)[Neu5Ac(a2-3)Gal(b1-4)GlcNAc(b1-2)Man(a1-3)]Man(b1-4)GlcNAc(b1-4)GlcNAc
# Method in brief: as §1
# [24] = target: Neu5Ac(a2-3)Gal(b1-4)GlcNAc(b1-2)[Neu5Ac(a2-3)Gal(b1-4)GlcNAc(b1-6)]Man(a1-6)[Neu5Ac(a2-3)Gal(b1-4)GlcNAc(b1-2)Man(a1-3)][GlcNAc(b1-4)]Man(b1-4)GlcNAc(b1-4)GlcNAc
# Method in brief: as §1
# [25] = target: Neu5Ac(a2-3)Gal(b1-4)GlcNAc(b1-3)Gal
# Method in brief: as §1
# [26] = target: Neu5Ac(a2-3)Gal(b1-4)GlcNAc(b1-3)Gal(b1-3)GlcNAc
# Method in brief: as §1
# [27] = target: Neu5Ac(a2-3)Gal(b1-4)GlcNAc(b1-3)Gal(b1-4)GlcNAc
# Method in brief: as §1
# [28] = target: Neu5Ac(a2-3)Gal(b1-4)GlcNAc(b1-3)Gal(b1-4)GlcNAc(b1-2)Man(a1-3)[Neu5Ac(a2-3)Gal(b1-4)GlcNAc(b1-3)Gal(b1-4)GlcNAc(b1-2)Man(a1-6)]Man(b1-4)GlcNAc(b1-4)GlcNAc
# Method in brief: as §1
# [29] = target: Neu5Ac(a2-3)Gal(b1-4)GlcNAc(b1-3)Gal(b1-4)GlcNAc(b1-3)Gal(b1-4)GlcNAc
# Method in brief: as §1
# [30] = target: Neu5Ac(a2-3)Gal(b1-4)GlcNAc(b1-3)Gal(b1-4)GlcNAc(b1-3)Gal(b1-4)GlcNAc(b1-2)Man(a1-3)[Neu5Ac(a2-3)Gal(b1-4)GlcNAc(b1-3)Gal(b1-4)GlcNAc(b1-3)Gal(b1-4)GlcNAc(b1-2)Man(a1-6)]GalNAc
# Method in brief: as §1
# [31] = target: Neu5Ac(a2-3)Gal(b1-4)GlcNAc(b1-3)Gal(b1-4)GlcNAc(b1-3)GalNAc
# Method in brief: as §1
# [32] = target: Neu5Ac(a2-3)Gal(b1-4)GlcNAc(b1-3)Gal(b1-4)GlcNAc(b1-3)[Neu5Ac(a2-3)Gal(b1-4)GlcNAc(b1-3)Gal(b1-4)GlcNAc(b1-6)]GalNAc
# Method in brief: as §1
binder,measurement,setting,value
B1,glycan array binding signal (z-score),[1],-0.15
same,glycan array binding signal (z-score),[2],-0.172
same,glycan array binding signal (z-score),[3],-0.174
same,glycan array binding signal (z-score),[4],-0.174
same,glycan array binding signal (z-score),[5],-0.152
same,glycan array binding signal (z-score),[6],-0.188
same,glycan array binding signal (z-score),[7],-0.166
same,glycan array binding signal (z-score),[8],-0.176
same,glycan array binding signal (z-score),[9],-0.176
same,glycan array binding signal (z-score),[10],-0.25
same,glycan array binding signal (z-score),[11],-0.181
same,glycan array binding signal (z-score),[12],-0.177
same,glycan array binding signal (z-score),[13],-0.174
same,glycan array binding signal (z-score),[14],-0.184
same,glycan array binding signal (z-score),[15],0.435
same,glycan array binding signal (z-score),[16],-0.173
same,glycan array binding signal (z-score),[17],-0.174
same,glycan array binding signal (z-score),[18],-0.168
same,glycan array binding signal (z-score),[19],-0.169
same,glycan array binding signal (z-score),[20],-0.175
same,glycan array binding signal (z-score),[21],-0.177
same,glycan array binding signal (z-score),[22],-0.18
same,glycan array binding signal (z-score),[23],-0.172
same,glycan array binding signal (z-score),[24],-0.18
same,glycan array binding signal (z-score),[25],-0.182
same,glycan array binding signal (z-score),[26],-0.178
same,glycan array binding signal (z-score),[27],-0.07
same,glycan array binding signal (z-score),[28],-0.109
same,glycan array binding signal (z-score),[29],0.74
same,glycan array binding signal (z-score),[30],-0.024
same,glycan array binding signal (z-score),[31],-0.173
same,glycan array binding signal (z-score),[32],-0.161
